About 2,200 (0.71%) of roughly 310,000 compounds showed an effect of 50% or more. Effects have a minus sign here. The list shows a part of the results.
molecular target: human ether-à-go-go-related gene (hERG) potassium channel (human, UniProt Q12809); assay: primary screen, population patch clamp on CHO cells stably expressing hERG
Sequence (Q12809 whole entry, looked up): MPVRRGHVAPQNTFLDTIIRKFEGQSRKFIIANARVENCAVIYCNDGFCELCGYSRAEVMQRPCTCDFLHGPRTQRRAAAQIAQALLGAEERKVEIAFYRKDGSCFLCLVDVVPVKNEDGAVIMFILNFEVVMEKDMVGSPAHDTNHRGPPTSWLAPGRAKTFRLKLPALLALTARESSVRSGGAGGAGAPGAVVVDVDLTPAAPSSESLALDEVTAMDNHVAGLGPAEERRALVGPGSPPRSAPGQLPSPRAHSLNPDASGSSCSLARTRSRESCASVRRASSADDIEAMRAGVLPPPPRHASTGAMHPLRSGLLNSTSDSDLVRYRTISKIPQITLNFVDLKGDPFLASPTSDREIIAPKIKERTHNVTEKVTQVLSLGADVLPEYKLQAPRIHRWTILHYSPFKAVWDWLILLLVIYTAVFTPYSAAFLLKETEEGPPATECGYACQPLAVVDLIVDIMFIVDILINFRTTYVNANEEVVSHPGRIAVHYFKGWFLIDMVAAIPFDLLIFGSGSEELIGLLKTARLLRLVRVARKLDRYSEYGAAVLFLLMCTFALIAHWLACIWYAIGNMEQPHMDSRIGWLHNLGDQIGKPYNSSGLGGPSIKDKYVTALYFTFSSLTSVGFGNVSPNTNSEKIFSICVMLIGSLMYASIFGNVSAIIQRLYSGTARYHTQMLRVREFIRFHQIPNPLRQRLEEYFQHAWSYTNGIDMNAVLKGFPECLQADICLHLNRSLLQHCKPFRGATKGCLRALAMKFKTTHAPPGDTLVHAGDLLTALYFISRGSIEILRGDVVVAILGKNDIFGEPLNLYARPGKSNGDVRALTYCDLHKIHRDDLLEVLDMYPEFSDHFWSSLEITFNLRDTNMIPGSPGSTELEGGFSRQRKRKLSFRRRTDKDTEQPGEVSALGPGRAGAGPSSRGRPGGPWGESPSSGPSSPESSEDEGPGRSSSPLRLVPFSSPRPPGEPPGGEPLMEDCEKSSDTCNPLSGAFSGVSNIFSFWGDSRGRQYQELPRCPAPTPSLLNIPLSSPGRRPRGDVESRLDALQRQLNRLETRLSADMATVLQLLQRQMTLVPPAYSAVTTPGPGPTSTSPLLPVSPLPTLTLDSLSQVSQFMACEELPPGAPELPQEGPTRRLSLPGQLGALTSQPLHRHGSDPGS

| Structure (SMILES) | hERG current change (%, negative = inhibition) at 1uM [%] |
| --- | --- |
| CCn1c(=O)cc(OCC(=O)N2CCN(Cc3ccc4c(c3)OCO4)CC2)c2ccccc21 | -4.45 |
| CC(C)CN1CCN(Cc2ccc(C#CC(C)(C)O)cc2)CC1CCO (stereo not drawn) | 5.05 |
| Cc1ccc(NC(=O)CS(=O)CC(=O)N(c2ccccc2)C(C)C(=O)NC2CCCC2)cc1 (stereo not drawn) | -1.98 |
| O=S1(=O)NC(=NCC(c2ccco2)N2CCCCC2)c2ccccc21 (stereo not drawn) | 13 |
| Cc1onc(C(=O)Nc2c(C)n(C)n(-c3ccccc3)c2=O)c1[N+](=O)[O-] | 9.61 |
| Cc1ccccc1NC(=S)NCc1ccco1 | 14.1 |
| O=C(CN1C(=O)c2ccc([N+](=O)[O-])cc2C1=O)NC1CCS(=O)(=O)C1 (stereo not drawn) | -2.38 |
| COc1ccc(C2=Nn3c(nnc3-c3cccnc3)SC2)cc1OC | -21.4 |
| CCN(C(=O)c1cccnc1)c1ccccc1 | 5.96 |
| Cc1cc(NS(=O)(=O)c2ccc(NC(=O)COc3ccccc3[N+](=O)[O-])cc2)no1 | 10.8 |
| Cn1c(SCC(=O)Nc2ccc3[nH]c(=O)[nH]c3c2)nnc1-c1ccccc1 | 12.3 |
| C=CCNc1nc(C(=O)OCC(=O)Nc2ccc(S(N)(=O)=O)cc2)cs1 | 4.68 |
| O=c1[nH]c(=S)n(Cc2ccc(F)cc2)c(O)c1C=NCCCn1ccnc1 | 1.12 |
| NC(=O)CCn1c(C(=O)c2cccc([N+](=O)[O-])c2)c2ccccc2[n+]1[O-] | 6.45 |
| COc1ccc(-c2noc(CN3CCCC(OCc4ccccn4)C3)n2)cc1 (stereo not drawn) | 12 |
| O=C(NCc1ccco1)C1CCC(N2C(=O)C3C4CCC(C4)C3C2=O)CC1 (stereo not drawn) | 12.2 |
| CC(=O)c1ccc(OCC(O)CN(C)CCOc2ccc(Br)cc2)cc1 (stereo not drawn) | 14.9 |
| CCOC(=O)N1CCN(C(=O)Nc2ccc(NC(=O)N3CCN(C(=O)OCC)CC3)cc2)CC1 | 16.1 |
| COC(=O)[C@H](C)NC(=O)/C=C/c1ccc(OC)cc1 | 5.46 |
| CC(SCc1nc2sc3c(c2c(=O)[nH]1)CCCC3)C(=O)Nc1ccccn1 (stereo not drawn) | 3.12 |
| COc1ccccc1/C=C\C=N\n1c(-c2ccc(Cl)cc2)n[nH]c1=S | 1.77 |

| Structure (SMILES) | hERG current change (%, negative = inhibition) at 1uM [%] |
| --- | --- |
| Cc1cc(N2C(=O)C(O)=C(C(=O)c3ccco3)C2c2ccccc2F)no1 (stereo not drawn) | 9.84 |
| CCOC(=O)c1ccc(NC(=O)c2ccc(OC(C)C)c(OC)c2)cc1 | 6.23 |
| Cc1ccc(N/C=C(\C2OC(=O)c3ccccc32)[N+](=O)[O-])c(C)c1 (stereo not drawn) | 11.7 |
| Oc1ccc(-c2cn3ccccc3n2)cc1O | 8.99 |
| Cc1ncoc1C(=O)Nc1ccccc1-c1ccccc1 | -5.73 |
| CCOc1ccc(CN2C(=O)c3ccccc3C2C(=O)NCC2CCCO2)cc1 (stereo not drawn) | 12.8 |
| O=C(Cn1c(=O)sc2ccccc21)Nc1ccc(S(=O)(=O)N2CCCCC2)cc1 | 1.06 |
| CC1(C)C(/C=C/C=C/C=C/C=C2\N(CCCCS(=O)(=O)[O-])c3ccc4ccccc4c3C2(C)C)=[N+](CCCCS(=O)(=O)[O-])c2ccc3ccccc3c21.[Na+] | 8.12 |
| C=CCn1c(Cc2cccs2)nnc1SCC(=O)Nc1ccc(OC)c(OC)c1 | 13 |
| CCOC(=O)N1CCN(C(=O)c2ccc3c(=O)n(-c4ccccc4F)c(=S)[nH]c3c2)CC1 | 10.2 |
| Cc1onc(-c2ccccc2)c1C(=O)NNC(=S)NC(=O)c1ccc(F)cc1 | 22.4 |
| Cc1ccc(NC(=O)COC(=O)c2ccc3c(c2)OCO3)cc1S(=O)(=O)N1CCCCC1 | 1.98 |
| CC1CCN(C(=O)CSc2nnc(-c3cccnc3)n2C2CCCCC2)CC1 | -7.03 |
| O=C(NCC1CCCN1S(=O)(=O)c1cccs1)C(=O)Nc1ccccc1Cl (stereo not drawn) | 11.8 |
| CCOc1cccc(C(=O)N(Cc2cccc(F)c2)C2CCS(=O)(=O)C2)c1 (stereo not drawn) | 11.6 |
| CCCSc1cc(NCCOC(=O)CCC)c([N+](=O)[O-])c2nonc12 | 12 |
| CCOC(=O)c1nc(NCc2ccccc2)c2ccccc2n1 | 4.53 |
| O=C1NC2(CCCCCC2)C(=O)N1CCS(=O)(=O)Oc1ccccc1 | 7.3 |
| COC(=O)c1ccc(Oc2nc(N(C)C)nc(N3CCOCC3)n2)cc1 | 6.94 |
| CCC(C(=O)NC1CC1)n1nc(C)c2c(C)n(-c3ccccc3)nc2c1=O (stereo not drawn) | 8.6 |
| COC(=O)/C=C/c1cnc[nH]1 | 21.3 |

| Structure (SMILES) | hERG current change (%, negative = inhibition) at 1uM [%] |
| --- | --- |
| N=C1/C(=C\c2ccc(-c3cccc(Cl)c3)o2)C(=O)N=C2SC=C(c3ccccc3)N12 | 7.18 |
| O=C1CC(N2CCCN(C3CC(=O)N(c4ccc(F)cc4)C3=O)CC2)C(=O)N1c1ccc(F)cc1 (stereo not drawn) | -3.92 |
| Cc1nn(-c2ccccc2)c(C)c1/C=C/C(=O)OC(C)C(=O)Nc1ncc(Cl)cc1Cl (stereo not drawn) | 3.27 |
| CCc1ccccc1NC(=S)NC1CC2CCCC(C1)N2Cc1cccs1 (stereo not drawn) | 0.843 |
| COc1ccc(/C=C2\SC(=O)N(CCC(=O)NCCCn3ccnc3)C2=O)cc1 | -2.52 |
| Cc1cc(Cl)ccc1OCCCC(=O)NC1CCN(C)CC1 | -18.3 |
| CCOC(=O)c1c(-c2ccc(OC)c(OC)c2)csc1NC(=O)C1CCCO1 (stereo not drawn) | 6.95 |
| CC(=O)c1cc2c(cc1NC(=O)CCc1ccccc1)OCO2 | 9.5 |
| COc1ccc(S(=O)(=O)c2snnc2C)cc1 | 11.5 |
| O=C(NCC(O)c1ccc([N+](=O)[O-])cc1)c1cccc(S(=O)(=O)N2CCOCC2)c1 (stereo not drawn) | 8.58 |
| CC(NC(=O)/C(C#N)=C/c1ccco1)c1ccccc1 (stereo not drawn) | 0.764 |
| O=C(CCN1C(=O)c2ccccc2S1(=O)=O)N1CCN(c2cccc(Cl)c2)CC1 | 5.09 |
| C(#Cc1ccccc1)C[N+]1(CC#Cc2cccc3ccccc23)CCCC1.[Br-] | 4.73 |
| COc1cc(/C=C/C(=O)Nc2ccc3[nH]c(=O)[nH]c3c2)cc(OC)c1OC | 4.59 |
| COc1ccc(S(=O)(=O)N2CCC(C(=O)NC(c3nc4ccccc4[nH]3)C(C)C)CC2)cc1 (stereo not drawn) | 14.3 |
| Cc1c(O)ccc2c(CC(=O)N[C@@H](Cc3c[nH]c4ccccc34)C(=O)O)cc(=O)oc12 | 14.1 |
| C/C(CC1(O)C(=O)N(C)c2ccccc21)=N\O (stereo not drawn) | 18.7 |
| CC(C)c1cc(C(=O)N/N=C/c2cccnc2)cs1 | -6.85 |
| CC(C)(C)C(=O)NC(=S)Nc1ccccc1C(N)=O | 3.85 |
| CC1(C)C2CC=C(/C=N/NC(=S)Nc3cccnc3)C1C2 (stereo not drawn) | 12.6 |
| O=C(Nc1cc([N+](=O)[O-])ccc1Cl)C(Sc1ccccc1)c1ccccc1 (stereo not drawn) | 1.16 |

| Structure (SMILES) | hERG current change (%, negative = inhibition) at 1uM [%] |
| --- | --- |
| COc1ccc(CNC(=O)CCCn2ccc3cc(S(=O)(=O)N4CCCC4)ccc32)cc1 | 0.708 |
| O=S1(=O)N=C2CCCN2C(c2ccc(F)cc2)N1 (stereo not drawn) | 1.14 |
| CC(CCc1ccccc1)NC(=O)COC(=O)c1cccc2ccccc12 (stereo not drawn) | 2.34 |
| O=C(O)c1cc(S(=O)(=O)NC23CC4CC(CC(C4)C2)C3)ccc1Cl | 14.4 |
| Cc1csc(NC(=O)CSc2ncnc3c2cnn3-c2ccccc2Cl)n1 | 6.38 |
| Cc1oc2ccc(OCc3ccc(Br)cc3)cc2c1C(=O)O | 16.8 |
| COC(=O)[C@@]12CCCN1[C@H](c1ccc(-c3cccc(Cl)c3)c(OC)c1)[C@H]1C(=O)N(C)C(=O)[C@H]12.O=C(O)C(F)(F)F | -10.3 |
| COc1ccc(OCCCC(=O)Nc2ccc(S(=O)(=O)N3CCOCC3)cc2)cc1 | 8.46 |
| Cc1ccc(S(=O)(=O)N2CCOCC2)cc1C(=O)NCc1ccco1 | 5.09 |
| O=C(c1cc2c(s1)CCCC2)N1CCN(C(=O)C2CCCO2)CC1 (stereo not drawn) | -8.18 |
| CC/C(=N\Nc1ccccc1)c1c(O)n(C)c(=O)n(C)c1=O | 4.24 |
| Cc1ccnn1CCC(=O)N1CCCC(CCC(=O)NCc2ccccc2F)C1 (stereo not drawn) | 0.831 |
| O=S(=O)(c1ccc(Cl)cc1)N1CCN(c2ccccn2)CC1 | 5.51 |
| CCOC(=O)c1c(/N=C/c2cccc([N+](=O)[O-])c2O)sc2c1CCC2 | 11.1 |
| COc1ccc(CC(=O)N(C)C2CCCCC2)cc1S(=O)(=O)N1CCOCC1 | 10.6 |
| Cc1ccc(-c2nnc(N3CCN(C(=O)CN4CCOCC4)CC3)c3ccccc23)cc1 | -9.34 |
| O=C(Nc1cnn(C23CC4CC(CC(C4)C2)C3)c1)c1cnn2cccnc12 | 10.4 |
| COC(=O)c1ccc(COC(=O)C23CC4CC(CC(O)(C4)C2)C3)o1 | -1.45 |
| CC(C)COc1ccc(C/C(N)=N/n2cnnc2)cc1 | 7.1 |
| O=C(c1cc(F)ccc1F)C1CCCN(C(=O)CCCN2CCCCC2=O)C1 (stereo not drawn) | -1.1 |
| Cn1c(O)c(C(=Nc2ccccc2)SCc2ccccc2Cl)c(=O)n(C)c1=O | 17.8 |

Reference: PMC4336329 (PLoS ONE, 2015)
